From ChEMBL document CHEMBL4888484, “Replenishing the malaria drug discovery pipeline: Screening and hit evaluation of the MMV Hit Generation Library 1 (HGL1) against asexual blood stage Plasmodium falciparum ,using a nano luciferase reporter read-out” (2022)
The campaign covered roughly 150,000 compounds. About 540 (0.36%) showed an effect of 50% or more. The list shows a part of the results.

These molecules were tested on Plasmodium falciparum (assay: Primary screen in NF54 nanoGlo assay, in single point, at 2uM, 72h; a lower Z score goes with more inhibition). Conditions: timepoint 72 hour.
Format: functional, Erythrocyte
For `FC(F)(F)c1ccc([C@@H]2CCCCCN2)cc1`, the “% Inhibition” value was 3% and the Z score was -0.57.
For `Cc1nc(CC(=O)N2CC(Oc3ccccc3Cl)C2)cs1`, the “% Inhibition” value was -6% and the Z score was 0.89.
For `Cc1noc(CNC(=O)Cc2csc(Nc3ncccn3)n2)n1`, the “% Inhibition” value was 1% and the Z score was -0.16.
In the case of `C[C@H]1CN(C(=O)NCc2ccccc2F)CC(=O)N1`, the “% Inhibition” value was -4% and the Z score was 0.57.
In the case of `CCN(CC)CCCNC(=O)CCc1cc2c(n1-c1ccc(C)cc1F)-c1ccccc1OC2`, the “% Inhibition” value was -4% and the Z score was 0.74.
In the case of `COCCN(CC(F)(F)F)C(=O)[C@@H]1Cc2cccc(F)c2O1`, the “% Inhibition” value was -12% and the Z score was 1.23.
With `Cc1n[nH]c(C)c1CNC(=O)N(C)Cc1ccsc1` the “% Inhibition” value was -1% and the Z score was 0.13.
With `Cc1ncc(C(=O)N2CC[C@](C)(O)[C@H](C)C2)cn1` the “% Inhibition” value was 1% and the Z score was -0.13.
With `Cc1cc(C)nc(N(C)CC(=O)NC(C)(C)C)n1` the “% Inhibition” value was -10% and the Z score was 1.43.
`CCCCNCCOc1ccc(OC)cc1` was tested, and the “% Inhibition” value was 10% and the Z score was -1.32.
In the case of `Nc1nnc(C2CCN(C(=O)Nc3ccc(Cl)cc3)CC2)o1`, the “% Inhibition” value was 8% and the Z score was -0.99.
In the case of `COc1cc2ccncc2cc1OCCOc1ccccc1`, the “% Inhibition” value was 2% and the Z score was -0.24.
`O=C(c1cccc(Cl)c1)N(CC(F)(F)F)C1CCOCC1` was tested, and the “% Inhibition” value was 1% and the Z score was -0.14.
`CC[C@H](C)n1nnc2cc(S(=O)(=O)N3CCC(C(=O)Nc4ccc(C)cc4)CC3)ccc21` was tested, and the “% Inhibition” value was -17% and the Z score was 2.37.
For `NC(=O)c1csc(N2CCC(CO)(C[C@H]3CCCCO3)CC2)n1`, the “% Inhibition” value was -9% and the Z score was 1.24.
For `CC(=O)N[C@@H](Cc1ccccc1)c1nnc(N2CCCCCC2)o1`, the “% Inhibition” value was 6% and the Z score was -0.71.
In the case of `O=c1[nH]c2ccsc2c(=O)n1CCc1ccccc1`, the “% Inhibition” value was 33% and the Z score was -4.74.
In the case of `Cn1cnn(CC(=O)Nc2nc3ccccc3[nH]2)c1=O`, the “% Inhibition” value was -6% and the Z score was 0.88.
`CCC(=O)c1ccc(OCCNC)cc1` was tested, and the “% Inhibition” value was -10% and the Z score was 1.37.
For `Cn1c(CCNC(=O)C2CC2C2CCC2)nc2ccc(F)cc21` (stereo unspecified), the “% Inhibition” value was 27% and the Z score was -3.09.
For `CC(C)c1noc(Cn2cc([C@H](O)c3ccccc3)cn2)n1`, the “% Inhibition” value was -7% and the Z score was 0.91.
In the case of `Cn1ccnc1COC(=O)c1cccc(Nc2cnccn2)c1`, the “% Inhibition” value was -12% and the Z score was 2.05.
For `CCC(Oc1ccc2c(c1)C(c1ccccc1)N(C(=O)CC(C)C)CC2)C(=O)N1CCOCC1` (stereo unspecified), the “% Inhibition” value was -13% and the Z score was 1.25.
`COCCc1noc(C2CN(S(=O)(=O)c3cccc(F)c3)C2)n1` was tested, and the “% Inhibition” value was -12% and the Z score was 1.55.
For `Cc1ccc([C@H](C)N(C)Cc2noc(-c3cccs3)n2)s1`, the “% Inhibition” value was -12% and the Z score was 1.56.
`C[C@@H](CC(=O)NC(C)(C)CO)Cc1ccc(Cl)cc1` was tested, and the “% Inhibition” value was -14% and the Z score was 1.58.
In the case of `CCn1cc(S(=O)(=O)NCCc2ncc(C)n2C2CC2)cn1`, the “% Inhibition” value was -10% and the Z score was 1.78.
For `CN(C)C[C@@H](O)CNC1CCC(C(F)(F)F)CC1` (stereo partly specified), the “% Inhibition” value was -3% and the Z score was 0.35.
For `Cc1noc(COC(=O)c2cnn(-c3ccc(F)cc3F)c2)n1`, the “% Inhibition” value was -9% and the Z score was 1.41.
In the case of `CC(C)(C)CC(C)(C)NC(=O)c1ccc(C#N)cc1`, the “% Inhibition” value was -6% and the Z score was 0.66.
With `COc1cc(F)c([C@H](C)NCc2cnc(C3OCCO3)s2)cc1OC` the “% Inhibition” value was -3% and the Z score was 0.34.
`O=C(NC1CCCC1)c1cc2ccccc2o1` was tested, and the “% Inhibition” value was -11% and the Z score was 2.11.
For `Cc1nnc(NC(=O)[C@H](Oc2cccc(Br)c2)c2ccccc2)s1`, the “% Inhibition” value was 2% and the Z score was -0.48.
`Cc1cc(C)c(NS(=O)(=O)c2ccc3c(c2)-c2oncc2CO3)c(C)c1` was tested, and the “% Inhibition” value was -7% and the Z score was 1.28.
`Cc1cc(=O)n(CCN(Cc2cocn2)Cc2cocn2)c(=O)[nH]1` was tested, and the “% Inhibition” value was 2% and the Z score was -0.35.
With `Cc1cccc(CN2CCN(C(=O)c3cc(C)n[nH]3)[C@@H](C)C2=O)c1` the “% Inhibition” value was -9% and the Z score was 1.2.
`C#CCN(Cc1cc(OC)ccc1OC[C@@H](O)CN1CCC(O)CC1)C1CCCCC1` was tested, and the “% Inhibition” value was 7% and the Z score was -0.78.
`CC[C@H](Nc1ccc2oc(N(C)C)nc2c1)C(=O)OC` was tested, and the “% Inhibition” value was -11% and the Z score was 1.1.
For `CCN(CC)[C@H]1CCOC2(CCN(C(=O)CCc3ccc(OC)cc3)CC2)C1`, the “% Inhibition” value was -8% and the Z score was 1.31.
For `CC(C)(C)Cc1ncc(C(=O)N[C@H]2CCO[C@@H]2c2cc[nH]n2)s1`, the “% Inhibition” value was -7% and the Z score was 1.16.
In the case of `CN(C)c1cccc(C(=O)Nc2cccc(-c3nnc4n3CCCC4)c2)c1`, the “% Inhibition” value was -8% and the Z score was 1.39.
`CCCC12CCCN1C(=O)N(C1CCN(C(=O)OCC)C1)C2=O` (stereo unspecified) was tested, and the “% Inhibition” value was -7% and the Z score was 1.1.
In the case of `COCCC1(CNC(=O)Nc2cc(N(C)C)n3nc(C)cc3n2)CC1`, the “% Inhibition” value was 6% and the Z score was -0.81.
